# The campaign covered roughly 410,000 compounds. About 6,400 (1.6%) were called active. This list was built around the results that the source calls inconclusive (neither active nor inactive); the mix of calls is not that of the screen. The call rests on the fitted dose curve; in most records, active means well fitted inhibition curve with a large enough effect; inconclusive means small, poorly fitted or top-dose-only effect; inactive means no such curve, though single readings can be large or run the other way. No potency is given beside an inconclusive call; the fits are too rough.
# Target: Glucagon-like peptide 1 receptor (Homo sapiens) (UniProt P43220)
# Experiment: qHTS of GLP-1 Receptor Inverse Agonists (Inhibition Mode); further: nearly all actives have a fitted effect of over 55% in size
# Conditions: HEK293 GLP-1R CRE-luciferase, luminescence, 24 h, GLP-1R form is constitutively active; activity change, negative = inhibition: at 38.3 µM (top of the series) unless noted
# Method in brief: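 Stable HEK293 clone (constitutively active GLP-1R + cAMP-response luciferase); 200 cells/uL plated, 12 h pre-culture, compound 24 hr, 37 deg C/5% CO2; detection reagent 12 min RT; luminescence.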
# On the % scale 0 is the no-effect control and ±100 the full control effect; potency means the concentration at half of the fitted maximal effect; tags describe the fitted curve by direction and shape.
# Sequence of UniProt P43220 (P43220 whole entry, looked up): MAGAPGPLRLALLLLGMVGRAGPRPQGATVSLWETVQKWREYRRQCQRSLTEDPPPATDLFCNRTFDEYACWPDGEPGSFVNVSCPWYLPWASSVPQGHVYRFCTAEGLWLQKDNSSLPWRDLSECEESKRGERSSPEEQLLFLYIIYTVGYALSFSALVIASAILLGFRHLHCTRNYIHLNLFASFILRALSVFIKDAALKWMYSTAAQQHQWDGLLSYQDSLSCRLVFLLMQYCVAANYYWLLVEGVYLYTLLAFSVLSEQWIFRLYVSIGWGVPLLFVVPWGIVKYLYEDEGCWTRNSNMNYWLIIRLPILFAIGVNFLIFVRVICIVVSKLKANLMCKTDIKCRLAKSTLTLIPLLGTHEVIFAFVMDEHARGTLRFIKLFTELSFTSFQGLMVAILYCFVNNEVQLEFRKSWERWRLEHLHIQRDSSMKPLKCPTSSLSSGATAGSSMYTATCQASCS
Compound,Potency,"activity change, negative = inhibition"
CCNC(=O)NC(=O)C(C)OC(=O)C(C)(C)Oc1ccc(Cl)cc1 (stereo not drawn),"inconclusive [inhibitor, single point]",–
COc1ccccc1CNC(=O)CSc1cc(C)[nH]c(=O)n1,–,inactive: 0.66%
CNc1sc(C(=O)c2cccs2)c(N)c1-c1nc2ccccc2s1,"inconclusive [inhibitor, partial curve, poor fit]",–
Cc1ccn2c(Nc3ccc4c(c3)OCCO4)c(-c3ccc(N(C)C)cc3)nc2c1,–,inactive: 18.1%
C/C(=N\NC(=O)c1ccc(CN2CCc3ccccc3C2)cc1)c1ccccc1O,"inconclusive [inhibitor, partial curve, poor fit]",–
CCOCCCNC(=S)N1CCN(c2nc(-c3ccccc3)cs2)CC1,"inconclusive [inhibitor, single point]",–
Oc1ccccc1/C=N/N1CCN(c2ccccn2)CC1,–,inactive: 0.166%
Cc1oc2c(CN3CCOCC3)c(O)ccc2c(=O)c1-c1ccc(Cl)cc1,"inconclusive [inhibitor, single point]",–
CCOc1ccc(OCC)c(NC(=O)C2CCCN(S(=O)(=O)c3ccc(C)cc3)C2)c1 (stereo not drawn),"inconclusive [inhibitor, full curve, poor fit]",–
COc1ccc(NC(=O)c2cccc(S(=O)(=O)NCc3ccco3)c2)c(OC)c1,"inconclusive [inhibitor, partial curve, poor fit]",–
CCCN(CCC)C(=O)Cn1c(=O)n(-c2ccc(Cl)c(Cl)c2)c(=O)c2c(C)c(C(=O)N(C)C)sc21,–,inactive: 15.4%
CCN1C=C(Cc2ccccc2C)C2=C(C1)C(c1ccccc1C)C(C#N)=C(N)O2 (stereo not drawn),"inconclusive [inhibitor, partial curve, poor fit]",–
CCOc1ccc(-c2nnc(SCC(=O)N(CC)c3cccc(C)c3)o2)cc1,–,inactive: 5.37%
COc1ccc(OCCN2CCC(C(=O)NC(c3ccccn3)c3ccccc3OC)CC2)cc1 (stereo not drawn),"inconclusive [inhibitor, single point]",–
Cc1nn(-c2ccc(N3CCCCC3)nn2)c(C)c1CCC(=O)Nc1ccc(F)c(F)c1,"inconclusive [inhibitor, partial curve, poor fit]",–
Cc1cn2c(=O)c(S(=O)(=O)NCc3ccc(F)cc3)c(C)nc2s1,–,inactive: 5.88%
C#CCN(C(=O)c1cc(COc2cccc(C(F)(F)F)c2)on1)C1CCCCC1,"inconclusive [inhibitor, partial curve, poor fit]",–
CCC(C)c1ccc(C2C3=C(Nc4nc(N)[nH]c(=O)c42)c2ccccc2C3=O)cc1 (stereo not drawn),"inconclusive [inhibitor, single point]",–

# Source: PubChem BioAssay AID624417 (National Center for Advancing Translational Sciences (NCATS), 2012)
